Laboratory results reported in article PMC6018503.
No constants are given. Whether binding was seen depends on the method and setting. In cells and extracts the contact can be indirect. Some binding calls cover weakened binding; strength is not graded here.

T1: OsRFC1 (rice (Oryza sativa)) (UniProt Q2R2B4)
T1 sequence: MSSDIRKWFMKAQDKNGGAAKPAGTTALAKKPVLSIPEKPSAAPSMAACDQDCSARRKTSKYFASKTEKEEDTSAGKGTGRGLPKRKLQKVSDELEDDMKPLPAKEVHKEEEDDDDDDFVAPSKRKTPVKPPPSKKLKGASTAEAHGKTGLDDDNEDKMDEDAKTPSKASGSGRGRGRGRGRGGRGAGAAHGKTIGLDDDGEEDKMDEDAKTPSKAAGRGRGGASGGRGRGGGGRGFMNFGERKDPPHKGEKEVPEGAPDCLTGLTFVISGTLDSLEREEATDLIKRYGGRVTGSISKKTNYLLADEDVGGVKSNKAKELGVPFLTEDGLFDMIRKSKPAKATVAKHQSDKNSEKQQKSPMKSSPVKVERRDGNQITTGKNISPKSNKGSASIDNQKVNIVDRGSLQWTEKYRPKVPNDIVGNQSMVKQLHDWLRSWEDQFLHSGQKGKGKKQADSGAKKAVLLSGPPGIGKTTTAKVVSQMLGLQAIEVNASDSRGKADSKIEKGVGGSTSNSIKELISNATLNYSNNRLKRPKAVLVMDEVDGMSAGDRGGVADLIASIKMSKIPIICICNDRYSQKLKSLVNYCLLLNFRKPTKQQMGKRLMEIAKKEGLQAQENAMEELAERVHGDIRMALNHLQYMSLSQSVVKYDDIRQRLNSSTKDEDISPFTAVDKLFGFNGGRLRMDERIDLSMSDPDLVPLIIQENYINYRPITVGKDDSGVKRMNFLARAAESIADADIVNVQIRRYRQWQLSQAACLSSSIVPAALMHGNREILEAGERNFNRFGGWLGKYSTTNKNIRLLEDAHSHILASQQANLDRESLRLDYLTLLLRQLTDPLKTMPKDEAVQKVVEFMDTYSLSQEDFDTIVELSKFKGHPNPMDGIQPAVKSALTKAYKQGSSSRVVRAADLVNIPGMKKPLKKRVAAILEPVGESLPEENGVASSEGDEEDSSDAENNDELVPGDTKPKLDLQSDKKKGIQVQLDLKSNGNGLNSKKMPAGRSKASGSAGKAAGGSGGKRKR

T2: OsRFC3 (rice (Oryza sativa)) (UniProt Q6YZ54)
T2 sequence: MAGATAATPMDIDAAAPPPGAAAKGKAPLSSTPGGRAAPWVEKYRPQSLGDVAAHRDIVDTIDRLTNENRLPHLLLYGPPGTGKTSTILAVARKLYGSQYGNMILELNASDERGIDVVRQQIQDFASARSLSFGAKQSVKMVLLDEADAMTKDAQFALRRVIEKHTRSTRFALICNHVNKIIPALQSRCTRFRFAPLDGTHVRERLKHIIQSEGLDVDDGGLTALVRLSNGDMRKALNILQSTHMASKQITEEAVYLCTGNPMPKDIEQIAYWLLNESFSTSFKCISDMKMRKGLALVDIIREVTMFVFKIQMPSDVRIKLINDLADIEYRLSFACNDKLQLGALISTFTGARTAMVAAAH

T3: OsRFC5 (rice (Oryza sativa)) (UniProt Q852K3)
T3 sequence: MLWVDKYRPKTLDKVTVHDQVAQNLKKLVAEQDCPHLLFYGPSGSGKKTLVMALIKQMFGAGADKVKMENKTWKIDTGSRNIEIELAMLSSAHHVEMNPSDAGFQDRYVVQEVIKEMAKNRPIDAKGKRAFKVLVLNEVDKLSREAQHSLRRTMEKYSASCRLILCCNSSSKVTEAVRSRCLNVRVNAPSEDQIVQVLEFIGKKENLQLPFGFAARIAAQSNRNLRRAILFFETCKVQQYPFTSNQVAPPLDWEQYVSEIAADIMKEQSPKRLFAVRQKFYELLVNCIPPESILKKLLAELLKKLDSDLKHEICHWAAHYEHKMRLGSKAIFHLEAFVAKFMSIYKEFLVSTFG

T4: OsRFC4 (rice (Oryza sativa)) (UniProt Q7XRX1)
T4 sequence: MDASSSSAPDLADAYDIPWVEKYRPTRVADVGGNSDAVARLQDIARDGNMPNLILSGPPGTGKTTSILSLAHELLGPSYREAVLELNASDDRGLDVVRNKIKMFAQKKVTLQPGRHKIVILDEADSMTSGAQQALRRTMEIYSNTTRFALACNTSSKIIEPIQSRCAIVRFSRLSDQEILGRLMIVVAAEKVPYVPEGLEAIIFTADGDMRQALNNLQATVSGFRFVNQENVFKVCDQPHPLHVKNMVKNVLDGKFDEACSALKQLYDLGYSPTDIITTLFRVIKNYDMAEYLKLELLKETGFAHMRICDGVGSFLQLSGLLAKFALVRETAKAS


Legend:
Assay in all cases: split reporter; BiFC; YFP^N (aa 1-155) and YFP^C (aa 156-239) fusions (pCAMBIA-SPYNE, pCAMBIA-SPYCE) co-expressed in tobacco (Nicotiana benthamiana) leaf epidermal cells through Agrobacterium GV3101; confocal microscopy of YFP; only the two named fusions
[1] = biological target: T1, OsRFC1 (rice (Oryza sativa))
[2] = biological target: T2, OsRFC3 (rice (Oryza sativa))
[3] = biological target: T3, OsRFC5 (rice (Oryza sativa))
[4] = biological target: T4, OsRFC4 (rice (Oryza sativa))
[5] = biological target: OsRFC2 (rice (Oryza sativa)) (UniProt Q9FXM3)

| Binder | binding [1] | binding [2] | binding [3] | binding [4] | binding [5] |
| --- | --- | --- | --- | --- | --- |
| OsRFC3 Δ322–361 (domain or fragment, UniProt Q6YZ54 1-321) MAGATAATPMDIDAAAPPPGAAAKGKAPLSSTPGGRAAPWVEKYRPQSLGDVAAHRDIVDTIDRLTNENRLPHLLLYGPPGTGKTSTILAVARKLYGSQYGNMILELNASDERGIDVVRQQIQDFASARSLSFGAKQSVKMVLLDEADAMTKDAQFALRRVIEKHTRSTRFALICNHVNKIIPALQSRCTRFRFAPLDGTHVRERLKHIIQSEGLDVDDGGLTALVRLSNGDMRKALNILQSTHMASKQITEEAVYLCTGNPMPKDIEQIAYWLLNESFSTSFKCISDMKMRKGLALVDIIREVTMFVFKIQMPSDVRIKL | no binding | – | – | binds | no binding |
| OsRFC1 Δ1–642 (domain or fragment, UniProt Q2R2B4 643-1021) LSQSVVKYDDIRQRLNSSTKDEDISPFTAVDKLFGFNGGRLRMDERIDLSMSDPDLVPLIIQENYINYRPITVGKDDSGVKRMNFLARAAESIADADIVNVQIRRYRQWQLSQAACLSSSIVPAALMHGNREILEAGERNFNRFGGWLGKYSTTNKNIRLLEDAHSHILASQQANLDRESLRLDYLTLLLRQLTDPLKTMPKDEAVQKVVEFMDTYSLSQEDFDTIVELSKFKGHPNPMDGIQPAVKSALTKAYKQGSSSRVVRAADLVNIPGMKKPLKKRVAAILEPVGESLPEENGVASSEGDEEDSSDAENNDELVPGDTKPKLDLQSDKKKGIQVQLDLKSNGNGLNSKKMPAGRSKASGSAGKAAGGSGGKRKR | – | binds | binds | binds | binds |
| OsRFC1 with the region between 722 and 1,021 aa deleted (domain or fragment, UniProt Q2R2B4 1-721) MSSDIRKWFMKAQDKNGGAAKPAGTTALAKKPVLSIPEKPSAAPSMAACDQDCSARRKTSKYFASKTEKEEDTSAGKGTGRGLPKRKLQKVSDELEDDMKPLPAKEVHKEEEDDDDDDFVAPSKRKTPVKPPPSKKLKGASTAEAHGKTGLDDDNEDKMDEDAKTPSKASGSGRGRGRGRGRGGRGAGAAHGKTIGLDDDGEEDKMDEDAKTPSKAAGRGRGGASGGRGRGGGGRGFMNFGERKDPPHKGEKEVPEGAPDCLTGLTFVISGTLDSLEREEATDLIKRYGGRVTGSISKKTNYLLADEDVGGVKSNKAKELGVPFLTEDGLFDMIRKSKPAKATVAKHQSDKNSEKQQKSPMKSSPVKVERRDGNQITTGKNISPKSNKGSASIDNQKVNIVDRGSLQWTEKYRPKVPNDIVGNQSMVKQLHDWLRSWEDQFLHSGQKGKGKKQADSGAKKAVLLSGPPGIGKTTTAKVVSQMLGLQAIEVNASDSRGKADSKIEKGVGGSTSNSIKELISNATLNYSNNRLKRPKAVLVMDEVDGMSAGDRGGVADLIASIKMSKIPIICICNDRYSQKLKSLVNYCLLLNFRKPTKQQMGKRLMEIAKKEGLQAQENAMEELAERVHGDIRMALNHLQYMSLSQSVVKYDDIRQRLNSSTKDEDISPFTAVDKLFGFNGGRLRMDERIDLSMSDPDLVPLIIQENYINYRPITVGKDDSG | – | binds | binds | binds | binds |

The next lines start with the values.

| binding [1] | binding [2] | binding [3] | binding [4] | binding [5] | Binder |
| --- | --- | --- | --- | --- | --- |
| binds | binds | binds | – | – | OsRFC2 Δ1–221 (domain or fragment, UniProt Q9FXM3 222-339) LFGSSISSTDLISVSGAIPEDVVKSLLASCKSGEFDVANKEVNNIIADGYPVSQLISQFLDVIVNADDIPDEQKARICKKLGEADKCLVDGADEYLQLLDVASETIRALFDMPQTLVF |
| no binding | – | – | binds | no binding | OsRFC3 Δ62–361 (domain or fragment, UniProt Q6YZ54 1-61) MAGATAATPMDIDAAAPPPGAAAKGKAPLSSTPGGRAAPWVEKYRPQSLGDVAAHRDIVDT |
| – | binds | binds | binds | binds | OsRFC1 Δ1–721 (domain or fragment, UniProt Q2R2B4 722-1021) VKRMNFLARAAESIADADIVNVQIRRYRQWQLSQAACLSSSIVPAALMHGNREILEAGERNFNRFGGWLGKYSTTNKNIRLLEDAHSHILASQQANLDRESLRLDYLTLLLRQLTDPLKTMPKDEAVQKVVEFMDTYSLSQEDFDTIVELSKFKGHPNPMDGIQPAVKSALTKAYKQGSSSRVVRAADLVNIPGMKKPLKKRVAAILEPVGESLPEENGVASSEGDEEDSSDAENNDELVPGDTKPKLDLQSDKKKGIQVQLDLKSNGNGLNSKKMPAGRSKASGSAGKAAGGSGGKRKR |
| – | no binding | no binding | no binding | no binding | OsRFC1 Δ640–1021 (domain or fragment, UniProt Q2R2B4 1-639) MSSDIRKWFMKAQDKNGGAAKPAGTTALAKKPVLSIPEKPSAAPSMAACDQDCSARRKTSKYFASKTEKEEDTSAGKGTGRGLPKRKLQKVSDELEDDMKPLPAKEVHKEEEDDDDDDFVAPSKRKTPVKPPPSKKLKGASTAEAHGKTGLDDDNEDKMDEDAKTPSKASGSGRGRGRGRGRGGRGAGAAHGKTIGLDDDGEEDKMDEDAKTPSKAAGRGRGGASGGRGRGGGGRGFMNFGERKDPPHKGEKEVPEGAPDCLTGLTFVISGTLDSLEREEATDLIKRYGGRVTGSISKKTNYLLADEDVGGVKSNKAKELGVPFLTEDGLFDMIRKSKPAKATVAKHQSDKNSEKQQKSPMKSSPVKVERRDGNQITTGKNISPKSNKGSASIDNQKVNIVDRGSLQWTEKYRPKVPNDIVGNQSMVKQLHDWLRSWEDQFLHSGQKGKGKKQADSGAKKAVLLSGPPGIGKTTTAKVVSQMLGLQAIEVNASDSRGKADSKIEKGVGGSTSNSIKELISNATLNYSNNRLKRPKAVLVMDEVDGMSAGDRGGVADLIASIKMSKIPIICICNDRYSQKLKSLVNYCLLLNFRKPTKQQMGKRLMEIAKKEGLQAQENAMEELAERVHGDIRMALNHLQ |
